From article PMC4338599 (Science (New York, N.Y.), 2015)

Target: the molecule itself
Experiment: crystal structure

B1: PAXX […] (PAXX^[…]) (domain or fragment)
chain: not shown
Does B1 bind?
Result: binds
